Source: PubChem BioAssay AID1347417 (National Center for Advancing Translational Sciences (NCATS), 2020)
Screen size: about 120,000 compounds; about 5,300 (4.4%) were called active. This list was built around the results that the source calls inconclusive (neither active nor inactive); the mix of calls is not that of the screen. Calls come from the whole dose curve; as a rule, active = well fitted inhibition curve with a large enough effect; inconclusive = small, poorly fitted or top-dose-only effect; inactive = no such curve, though single readings can be large or run the other way. A potency beside an inconclusive call is a rough fit, not a confirmed value.

Assay: qHTS Primary assay for Inhibitors of Plasmodium falciparum Dd2 growth in vitro; note: nearly all actives have a fitted effect of over 65% in size;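 for activity, negative = inhibition: plate controls were DMSO vehicle for no effect and reference drug for full effect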
Details: P. falciparum Dd2 growth, SYBR Green, 72 h; activity, negative = inhibition: at 28.9 µM (top of the series) unless noted; series mostly up to 28.9 µM
In short: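 Readout: SYBR Green fluorescence, 485 nm excitation, 535 nm emission, after ~16 h lysis at 37C. Before that, Dd2-infected red cells (2.5% hematocrit) grew 72 h with compound, 29 uM top final concentration.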
Potency is the fitted concentration of half-maximal effect; tags give direction and shape of the fitted curve.

| SMILES | Potency | activity, negative = inhibition | outcome |
| --- | --- | --- | --- |
| COc1cccc(CN2CCc3c(cc(C(=O)NCCN4CCCCC4)n3C)C2)c1 | active: 3.98 µM | – | – |
| CC(C)NC(=O)C1CCCN(c2ncnc3c2nc2n3CCCCC2)C1 (stereo not given) | inconclusive: 17.8 µM [inhibitor, single point] | – | – |
| Cc1cccc(Cn2nnc(C(=O)Nc3cc(C)ccc3C)c2N)c1 | active: 2 µM | – | – |
| COC(=O)CC1CCN(C(=O)C2CC(=O)N(c3n[nH]c4ccccc34)C2)CC1 (stereo not given) | – | inactive: -6.31% | – |
| Cc1nc(N2CCC(NC(=O)C3CCCO3)CC2)cc(C(F)(F)F)n1 (stereo not given) | – | – | inactive |
| CC(C)c1ccc(C(=O)N2CCC3(CC2)OC(=O)N(CC2CC2)C3(C)c2cccnc2)cc1 (stereo not given) | inconclusive: 2.51 µM [inhibitor, partial curve] | – | – |
| c1ccc(CN2CCc3c(sc4ncnc(N5CCOCC5)c34)C2)cc1 | active: 7.94 µM | – | – |
| Cc1ccc2c(n1)N(C)[C@H](CO)CCN(CC(C)(C)C)C2 | inconclusive: 14.1 µM [inhibitor, partial curve, poor fit] | – | – |
| CC(C)N1C(=O)Cc2ccccc2C1C(=O)NCc1ccccc1Br (stereo not given) | – | inactive: -27.4% | – |
| COc1ccc(NC(=O)c2cnc3c(c2)N(C(=O)Cc2ccc(C(C)C)cc2)CCC3)cc1OC | – | inactive: -16.1% | – |
| Cc1cc(C)n2c(Nc3ccccc3)c(-c3ccccc3)nc2n1 | inconclusive: 17.8 µM [inhibitor, single point] | – | – |
| CCN1c2cc(C(=O)Nc3ccc(Cl)cc3)ccc2C(=O)N2CCCCCC21 (stereo not given) | inconclusive: 1.58 µM [inhibitor, partial curve, poor fit] | – | – |
| Cc1ccc(Cl)cc1N1CCN(C(=O)c2ccc3c(c2)N(Cc2ccccc2F)C(=O)c2ccccc2S3=O)CC1 (stereo not given) | inconclusive: 1 µM [inhibitor, single point] | – | – |
| Cc1nc(CCC(=O)NCc2cc3n(n2)CCCN(C(=O)N(C)C)C3)n[nH]1 | – | inactive: -22.8% | – |
| O=C(CCS(=O)(=O)c1cc(Br)cc2c1N(C(=O)C1CC1)CC2)Nc1ccc(F)cc1 | active: 3.98 µM | – | – |
| O=C(O)CCn1ncc2cc(OCc3ccc(-c4cccc(CO)c4)cc3)ccc21 | – | – | inactive [at 44.1 µM] |
| COc1ccc(-c2cc(OC(=O)c3ccccc3)c3c(C)oc(C)c3c(=O)c2)cc1OC | inconclusive: 17.8 µM [inhibitor, single point] | – | – |
| COc1cccc(C(O)c2nc(C(=O)Nc3ccc4c(c3)NC(=O)CO4)c(C)o2)c1 (stereo not given) | – | – | inactive [at 44.1 µM] |

| SMILES | Potency | activity, negative = inhibition | outcome |
| --- | --- | --- | --- |
| Cc1ccsc1CN1CCc2nc(N3CCN(C)CC3)[nH]c(=O)c2CC1 | – | – | inactive [at 5.79 µM] |
| CCn1cc(CN2CCCC(c3nc(C(C)C)no3)CCNC(=O)CC2)cn1 (stereo not given) | inconclusive: 1.58 µM [inhibitor, partial curve] | – | – |
| CN(C)c1ccc2ncc(Nc3ccc(Oc4ccccc4)cc3)n2n1 | inconclusive: 0.794 µM [inhibitor, full curve, poor fit] | – | – |
| Cc1cncn1CCc1nc2c3ccccc3nc(SCC(=O)Nc3ccc(F)cc3)n2n1 | inconclusive: 17.8 µM [inhibitor, single point] | – | – |
| Cc1ccc(C(=O)N2CCC3(CCCCO3)CC2)cn1 | – | inactive: 21.6% | – |
| CCCCn1c(=N)c(C(=O)NC2CCCCC2)cc2c(=O)n3cccc(C)c3nc21 | inconclusive: 1.41 µM [inhibitor, full curve] | – | – |
| COc1ccccc1C(=O)N1CCC2(CC1)OC(=O)N(CCOc1ccccc1)C2(C)c1cccnc1 (stereo not given) | inconclusive: 0.316 µM [inhibitor, full curve] | – | – |
| CCC(C)NC(=O)c1ccc2c(c1)N(Cc1ccccc1F)C(=O)c1ccccc1S2=O (stereo not given) | inconclusive: 20 µM [inhibitor, single point] | – | – |
| Cc1cc(C)cc(NC(=O)c2cnn(-c3ccc(C)c(C)c3)c2C2CCNCC2)c1 | active: 3.98 µM | – | – |
| COCCOCc1nc(C2CCN(C(=O)NC(C)C)CC2)no1 | – | inactive: 0.632% | – |
| CCOc1ccc(CCNC(=O)c2cn(-c3cccc(OC)c3)c(=O)c3ccccc23)cc1 | – | inactive: -22.9% | – |
| Cc1ccc(C2Cn3cnc(C(=O)N4CCC(C(=O)NCc5cccc(F)c5)CC4)c3CO2)cc1 (stereo not given) | – | inactive: -15% | – |
| CCNC(=O)N1CCOc2ccc(CCC(=O)Nc3ccc(C)cc3)cc2C1 | – | inactive: -8.48% | – |
| COCCOC1CCOC2(CCN(C(=O)Cc3c[nH]c4ccccc34)CC2)C1 (stereo not given) | active: 11.2 µM | – | – |
| CCNC(=O)c1coc(COc2ccc3c(c2)C(c2cccc(F)c2)N(C(=O)C(C)(C)C)CC3)n1 (stereo not given) | inconclusive: 1.12 µM [inhibitor, partial curve, poor fit] | – | – |
| CCC(CC)c1cc([C@H]2CN3CC[C@H]2C[C@@H]3CNS(C)(=O)=O)nc(-c2ccncc2)n1 | inconclusive: 2.51 µM [inhibitor, partial curve, poor fit] | – | – |
| CC(C)Cn1c(=O)c2ccccc2n2c(CCC(=O)NCc3ccc(Cl)cc3)nnc12 | inconclusive: 3.98 µM [inhibitor, partial curve, poor fit] | – | – |
